Experimental data as given in PubChem BioAssay (NCI).
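48-hour exposure; five concentrations; linearly interpolated endpoints. Here, GI50 denotes the concentration required for 50% inhibition of growth.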 For part of its entries the source gives two or more results. Only these are listed. The source may hold further records. For part of these data: Results that share an entry repeat one measurement in other runs, samples, wells, individuals or studies. Brackets tell where a record comes from. A, B and so on number the origins entry by entry.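 At the TGI there is no net growth.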 For part of these data: Records of one sample usually come from different ranges of test concentrations, not given here; some values may only mark the edge of a range. Square brackets hold non-standard residues; d marks the D form. Peptide text beside a SMILES is read from it. * marks the point of attachment. Bn2Val = CC(C)[C@@H](C(=O)*)N(Cc1ccccc1)Cc1ccccc1; NH(3,4-diMeO-benzyl) = COc1ccc(CN*)cc1OC; NMeV = CN[C@H](C(=O)O)C(C)C; dNMeA = CN[C@H](C)C(=O)O

How the values were obtained:
Test in all cases: NCI anticancer screen, dose series, 48 h
[1] = test system: EKVX NSCLC
[2] = test system: HCC-2998 colon
[3] = test system: HOP-62 NSCLC
[4] = test system: M14 melanoma
[5] = test system: NCI-H23 lung
[6] = test system: SF-295 CNS
[7] = test system: SN12C renal
[8] = test system: SNB-19 CNS
[9] = test system: SNB-75 CNS
[10] = test system: SR leukemia
[11] = test system: HS 578T breast
[12] = test system: HCT-116 colon
[13] = test system: HT29 colon
[14] = test system: CAKI-1 renal

Question: Which TGI [1] does the source give for O=C(O)CCCc1ccc(N(CCCl)CCCl)cc1 here?
Answer: 33.4 µM, 376 µM, 502 µM

Question: What about the TGI [2] of the same compound?
Answer: 38 µM, 237 µM, 426 µM

Question: And the TGI [3]?
Answer: 31.2 µM, 221 µM, 554 µM

Question: What about the TGI [4] of the same compound?
Answer: 35.2 µM, 205 µM, 410 µM

Question: And the TGI [5]?
Answer: 20.5 µM, 137 µM, 215 µM

Question: What about the TGI [6] of the same compound?
Answer: 61.1 µM, 293 µM, 638 µM

Question: What about the TGI [7] of the same compound?
Answer: 38.9 µM, 239 µM, 750 µM

Question: And the TGI [8]?
Answer: 49.4 µM, 395 µM, 589 µM

Question: And the TGI [9]?
Answer: 31.5 µM, 209 µM, 401 µM

Question: What about the TGI [10] of the same compound?
Answer: 7.87 µM and 131 µM

Question: Which TGI [11] does the source give for COc1ccc(CNC(=O)[C@@H](C)N(C)C(=O)[C@@H]2CCCN2C(=O)[C@H](C(C)C)N(C)C(=O)[C@@H](NC(=O)[C@H](C(C)C)N(Cc2ccccc2)Cc2ccccc2)C(C)C)cc1OC (Bn2Val-V[NMeV]P[dNMeA]-{NH(3,4-diMeO-benzyl)}) here?
Answer: 7.11 µM and > 100 µM

Question: For COc1cc([C@@H]2c3cc4c(cc3C[C@H]3COC(=O)[C@@H]32)OCO4)cc(OC)c1OC, which TGI [12] is on record?
Answer: 9.62 nM [1 test] and > 50 µM [mean of 4 tests]

Question: And the TGI [13]?
Answer: 9.32 nM [1 test] and 1.26 µM [mean of 5 tests]

Question: O=c1c(Cl)c(Cl)cnn1-c1ccccc1 was tested. Which TGI [14] did it give?
Answer: 3.3 µM [sample A, mean of 2 tests] and > 100 µM [sample B, 1 test]

Question: What about the GI50 [9] of the same compound?
Answer: 397 nM [sample A, mean of 3 tests] and 12.7 µM [sample B, mean of 2 tests]
